# ± gives the standard deviation of the averaged measurements. Some of the results follow.
# Test system: PfAP2-LT AP2 domain (GST-tagged)
# Assay: gcPBM binding intensity (ln(normalized median fluorescence intensity)); higher = stronger DNA binding
# Summary of the method: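 Binding intensity is defined as the maximum Masliner-normalised natural-log median intensity across replicate spots for either probe orientation. It was measured on an Agilent 4 × 180k array of primer-extended double-stranded 36-bp intergenic genomic probes and negative controls, to which GST-tagged P. falciparum DNA-binding domains made in E. coli were applied for 1 h in 1× PBS with 1% milk, 0.2 mg/ml BSA, 0.5% salmon testes DNA and 0.03% Triton X-100. Detection was by Alexa488 anti-GST antibody and scanning at 488 nm.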
row,Sequence,gcPBM binding intensity (ln)
1,AAAAAAAAAAAAAATAAATAAATAAATAAATATATA [GTGCAC_negctrl_site382],8.44 ± 0.54
2,CCTTTTTATTTTTGTAGTACTACATATACATATCTG [XGTACX_site7791],9.03 ± 0.44
3,ATATTAAAAAAATATAAACACACAAAAAAAAAATAT [CACACA_site8283],8.95 ± 0.5
4,TATTCAAAGAAAAACTGTACGTGTAGCAAACGTCAT [XGTACX_site7713],8.65 ± 0.34
5,TCGAATATCTTATAGGTGCATCATAAATACATATGT,8.86 ± 0.42
6,TAATTCTTTATTTTTCGTACGTAAAACAAAAAATAT [XGTACX_site862],8.29 ± 0.54
7,AATGTAAAGAACAAAACATGCAACTAGTTTACTTTT [TGCATGCA_site841],8.9 ± 0.38
8,TAAGTATATAAAATTACACACTATTTTTTTTCAAGT [CACACA_site1792],8.68 ± 0.51
9,TAGAAAAAAGATAGCACACACGGCCCAATATATATA [CACACA_site5354],9.35 ± 0.43
10,ATGCAATAATAATGGAGTACATATTAATATTGATCA [XGTACX_site2312],8.89 ± 0.4
11,CCTTTTGGATGAAAGTGTACAGGTGAGAAAAATTCC [XGTACX_site3358],8.71 ± 0.47
12,AAAAAATATATTAAGGCACACACATACATATATATA [CACACA_site9239],9.41 ± 0.3
13,AAAACAAATAGACACGCACACAAAAAAAAAAAAAAA [CACACA_site801],9.38 ± 0.6
14,TTAATTTCGAATTATTGTACATTAATATATCTACAG [XGTACX_site3314],8.52 ± 0.47
15,GAATAAAAAAAAAAAAAAATTTATTTTATAATAAAA [CACACA_negctrl_site1514],7.95 ± 0.59
16,ATATATATATATATATGTACATAAATATAAATTTAA [XGTACX_site8715],8.92 ± 0.38
17,ATATTTATTTATATCATACACACTAATATGTATATT [CACACA_site7576],8.9 ± 0.42
18,TTTTAAAACAATGAGATTCCTTTCTTTTTTTCTTTT [CACACA_negctrl_site1320],8.18 ± 0.56
19,TATCCCTTAGAATACACACCCATATGAGGGTGAACT [CACACA_site5610],8.77 ± 0.3
20,CTTAATGATAAATACATACACACAAAAAATAATATA [CACACA_site2577],8.96 ± 0.45
21,AGTAGATTTTTATTAGTGCATTTTATACTACAAAAA,8.38 ± 0.45
22,TATATGTTTAATTTCACACACAAATATACATTTTAA [CACACA_site4171],8.82 ± 0.49
23,AAGAAAATGTAGAATTAGAAATAAATGAAGAAATGA [TGCATGCA_negctrl_site548],8.78 ± 0.44

row,Sequence,gcPBM binding intensity (ln)
1,CATTAGCATTTTATTACACACAATAAATTAGAAGTA [CACACA_site7837],8.7 ± 0.45
2,ATTCTTAAATGTGGTTGTACATATTATCACCTTTAA [XGTACX_site8188],8.75 ± 0.42
3,TTTTTAATTTTATATACACACATAAAAGATATGAAG [CACACA_site7470],8.5 ± 0.4
4,ATATTCTCTTAAATATGTACGTATGTATATATATAT [XGTACX_site5885],8.86 ± 0.4
5,CGCAAAACAATGATACGTACATATATATATATATAT [XGTACX_site5883],9.88 ± 0.071
6,ACTTAGGAAATAAAACGTACATTAAATATATACATA [XGTACX_site2990],8.71 ± 0.46
7,TTTTATTTATTATTATGTACACACTATATTAAAACA [XGTACX_site1265],8.75 ± 0.37
8,TGAATAATCAATAGTACACACATATAAATATAAATA [CACACA_site7345],9.13 ± 0.42
9,GTATGTATGTATGTATGTACTTATTAATCAGTAAAA [XGTACX_site3844],8.97 ± 0.22
10,ATAAAAGATATGTATATGTATATGTATATATATATA [TGCATGCA_negctrl_site214],9.21 ± 0.25
11,TATAAATAAATAGATACACACATATTTATAAATACA [CACACA_site6219],8.87 ± 0.43
12,GCTTAAGGTAAATATAAAATATAGTGTATACTTTAG [XGTACX_negctrl_site585],8.59 ± 0.44
13,TTACGCTGCTATATAGTGCACATAATATATGACCTG,8.86 ± 0.33
14,AAATAAAATAATAAAACATGCAAAAATAATGATTTA [TGCATGCA_site415],8.79 ± 0.35
15,ATAAAGATTAACAAAGTGCATTTATATATATAATCT [GTGCAC_site9407],8.7 ± 0.4
16,CCCAAAAAATATCATAGTACTCAACATGACTACTAT [XGTACX_site7838],8.87 ± 0.3
17,TTTTTGTTAACAATGGGTACAAAAAAAAGGAAAATA [XGTACX_site7466],8.54 ± 0.33
18,AATTTTGTATAGGTATCACACATGAAATATATTATT [CACACA_site5526],8.74 ± 0.4
19,GTGATGGTACAATATACACACTTAAAAAAAAAAAAT [CACACA_site5360],8.97 ± 0.49
20,ATTCTACGCACGCGCACACACAACAAAAAAAAAAAA [CACACA_site3538],9.27 ± 0.56
21,CATGTGTGATAATGATGTACTATATTAAGCTAGTCC [XGTACX_site2690],8.93 ± 0.46
22,TATATACATATATATTGTACTTATTTTTATAATGTC [XGTACX_site3453],8.87 ± 0.46
23,TTTATAATTCTTACAACACACAATGTACTTTTATAT [CACACA_site8340],8.93 ± 0.45

row,Sequence,gcPBM binding intensity (ln)
1,TTTATTTCCTTTTTGTGTACATATATATGTAATTCA [XGTACX_site1718],8.78 ± 0.53
2,TTAAGGCATCAACATAGTACAATTTTTCTATAATAA [XGTACX_site1114],8.48 ± 0.47
3,ATTTAATACAAATACACACACAAATAAATACAGATA [CACACA_site5956],9.47 ± 0.26
4,TTAAATGTAATATAATGTACGGATATTTACCATAAA [XGTACX_site1472],8.45 ± 0.45
5,TAAATATATTGGAGAGGTACACTTTTGGCATTGAAA [XGTACX_site8447],8.62 ± 0.46
6,TTATTTTTTTATTCATGTACACAAGAACATTTCATT [XGTACX_site5744],8.65 ± 0.42
7,GTATATATAATGTGCCGTACATTTATATATTCAATA [XGTACX_site1051],8.73 ± 0.38
8,GTATAATAGAAACACACACACACACCCAAAAAAAAA [CACACA_site2010],10.3 ± 0.39
9,TTGTAATAAATAAAAGTGCATATATGGTTCCACTAT [GTGCAC_site9944],8.63 ± 0.51
10,AAGTATGTATCACAAAGTACTTAAGCATATATTTAA [XGTACX_site4121],8.87 ± 0.46
11,TATAATTATATAAATTGTACATAAAAAGTTTTTACT [XGTACX_site3621],8.36 ± 0.4
12,TATTATATCTTTTCAAGTACACATAACATACTTATT [XGTACX_site1081],8.81 ± 0.49
13,ACATATTAAATATGAGTGCAATATATATATATATAA,9.07 ± 0.35
14,TATATATACTTTTATGTACACACCTATAATATGGGT [CACACA_site1759],9.24 ± 0.48
15,AAATGTAATAATAAATGTACAAACATATATATGTAT [XGTACX_site8718],8.98 ± 0.4
16,AAGTTTAAAATCTTTGCACACATATAAATAAATATA [CACACA_site2554],8.85 ± 0.38
17,TGCACCCACCAACACACACACAACTAAAAAATAATG [CACACA_site2566],9.71 ± 0.42
18,ATAAATAAATAAAAAAGTACATTTCCACTTTTAACA [XGTACX_site81],8.52 ± 0.5
19,CAATATATTATATGGGTGCAAACCACATATAAATAA,8.77 ± 0.43
20,TTAGGTATATATAAACGTACTCACAATATCATATAA [XGTACX_site8743],8.71 ± 0.45
21,TTGTCTACAAAAATGTGCTTCTAATCATACGACTTG [CACACA_negctrl_site46],8.61 ± 0.43
22,TACATATATTATTGCACACATATAAAATACCCCCAA [CACACA_site3895],9.47 ± 0.15
23,CAGTTTACTAATATTGCACACGAATATGAAAAAGAG [CACACA_site8941],8.99 ± 0.45

row,Sequence,gcPBM binding intensity (ln)
1,TTATCATTTGCCATTGTGCACTTATATGCTCACATT,9.21 ± 0.44
2,AAAAAAAATTATGAAGTGCATTAGTGAATTTGATTG,8.61 ± 0.44
3,TTTTTTTTTCAAGAGGTGCGTGTATTTTAACAAAAA,8.37 ± 0.3
4,TTTTTCACACTTCAAAAGTGTCAACCTTCTATTCTC [TGCATGCA_negctrl_site489],8.95 ± 0.45
5,CACAAATATACAAATACACACAAATATACAAATACA [CACACA_site2385],9.42 ± 0.44
6,GTAAAATTTACATAGAGTACTTATATTTTTTTCTGC [XGTACX_site3414],8.6 ± 0.42
7,TAAAGTGTAAAATTCACACACATATATATATATATA [CACACA_site4883],9.975 ± 0.078
8,ATATTGTAAGTAAACACACACACATATATCTGTATA [CACACA_site4541],9.55 ± 0.2
9,ATTTTTTTTATTATTACACACATATAATAAAAAAAT [CACACA_site1802],8.61 ± 0.3
10,ATTTTTTTTTTCTTTTTTTTTTGTTTTTCTCCTTTT [CACACA_negctrl_site1182],8.71 ± 0.54
11,GTATAATTTATTGAACGTACACATATATATATGTAT [XGTACX_site1395],8.92 ± 0.35
12,AATAAAATGCAATACATTTTGTTATATAATGTTGTT [CACACA_negctrl_site1525],8.64 ± 0.4
13,CACAATGTAGTGTATAAATACAATAAAAGGTTGTAT [CACACA_negctrl_site700],9.1 ± 0.47
14,AAATGTATAGGAATAATAATAAAAAAAAAAAAAAAT [CACACA_negctrl_site1793],8.72 ± 0.64
15,ATCATTCCACTTTTCACACATATCTCTATTTCTATC [CACACA_site4723],9.15 ± 0.57
16,AAAAAAAATAAAATAATAAAAATTATGAATATATAT [CACACA_negctrl_site280],8.51 ± 0.52
17,TGGAGGTCAGTTCACAGTACCCAGTAACTCTACGGA [XGTACX_site2549],8.64 ± 0.38
18,ATAGGTAATAATAATACACACGGTGAAATATAGATG [CACACA_site9336],9.29 ± 0.44
19,TATTTCTTATTACATACACACATATACATAGATGAC [CACACA_site5729],9.07 ± 0.29
20,TCTTGTCTACCTTGTATTTAATATTTACATATATAA [TGCATGCA_negctrl_site320],8.85 ± 0.45
21,TATTTGTAAAAATTGTGTACTTAGAAAATTCCAAAA [XGTACX_site6007],8.28 ± 0.4

# — the supplement of paper PMC11417369
